Hit rate of the full screen: of about 310,000 compounds, about 14,000 (4.5%) showed an effect of 50% or more. Effects have a minus sign here. The list shows a part of the results.
Biological target: human ether-à-go-go-related gene (hERG) potassium channel (human, UniProt Q12809)
Experiment: primary screen, population patch clamp on CHO cells stably expressing hERG
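Further: peak tail current of the secondary pulse compared with the same well before compound.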

Sequence of human ether-à-go-go-related gene (hERG) potassium channel (Q12809 whole entry, looked up): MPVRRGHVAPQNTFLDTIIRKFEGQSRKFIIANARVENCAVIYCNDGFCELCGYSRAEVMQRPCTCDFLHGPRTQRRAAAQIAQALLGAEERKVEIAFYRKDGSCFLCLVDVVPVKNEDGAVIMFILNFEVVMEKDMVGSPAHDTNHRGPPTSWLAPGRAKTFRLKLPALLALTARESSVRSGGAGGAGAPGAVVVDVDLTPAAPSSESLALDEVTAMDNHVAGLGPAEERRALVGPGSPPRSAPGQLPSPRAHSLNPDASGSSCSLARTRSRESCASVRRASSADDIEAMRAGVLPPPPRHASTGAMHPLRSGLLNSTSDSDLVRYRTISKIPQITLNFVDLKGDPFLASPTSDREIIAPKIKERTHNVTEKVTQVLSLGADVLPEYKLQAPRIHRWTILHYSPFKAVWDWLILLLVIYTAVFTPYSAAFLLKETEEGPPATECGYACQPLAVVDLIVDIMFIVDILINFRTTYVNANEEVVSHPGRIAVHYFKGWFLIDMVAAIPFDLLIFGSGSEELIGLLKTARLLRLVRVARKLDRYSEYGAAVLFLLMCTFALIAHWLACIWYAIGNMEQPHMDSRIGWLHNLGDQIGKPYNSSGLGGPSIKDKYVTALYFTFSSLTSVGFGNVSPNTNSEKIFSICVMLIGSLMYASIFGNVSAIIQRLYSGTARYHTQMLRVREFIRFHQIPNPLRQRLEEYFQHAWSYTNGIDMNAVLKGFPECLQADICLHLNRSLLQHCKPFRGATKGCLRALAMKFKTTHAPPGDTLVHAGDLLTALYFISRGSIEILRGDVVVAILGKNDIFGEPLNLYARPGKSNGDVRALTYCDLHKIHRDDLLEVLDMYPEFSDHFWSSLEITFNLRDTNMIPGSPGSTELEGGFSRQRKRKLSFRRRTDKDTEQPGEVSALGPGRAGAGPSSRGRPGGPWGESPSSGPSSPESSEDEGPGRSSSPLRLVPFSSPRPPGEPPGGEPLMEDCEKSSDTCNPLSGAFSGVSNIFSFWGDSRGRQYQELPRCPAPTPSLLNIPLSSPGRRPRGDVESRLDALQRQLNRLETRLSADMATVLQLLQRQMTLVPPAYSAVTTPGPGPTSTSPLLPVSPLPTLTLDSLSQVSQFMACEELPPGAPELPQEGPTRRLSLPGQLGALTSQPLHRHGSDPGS

First: CCN(CC)CCCC(C)NC(=O)c1cc(=O)c2ccccc2o1.Cl (centres unmarked)
Second: CCN(CC)c1ccc(N=C2C(=O)Nc3ccccc32)cc1
The “hERG current change (%, negative = inhibition) at 10uM” value of the first is higher: 0.954% for the first, -46.7% for the second.

First: Cc1sc2ncnc(SCC#N)c2c1C
Second: COc1nc(C)cc(C)c1S(=O)(=O)c1ccccc1
The “hERG current change (%, negative = inhibition) at 10uM” value of the first is lower: 2.88% for the first, 20.7% for the second.

Going from `N/C(=N\OC(=O)c1cccc(Cl)c1)c1ccncc1` to `Cc1nc2cc(NC(=O)c3cccc(S(C)(=O)=O)c3)ccc2o1`, the “hERG current change (%, negative = inhibition) at 10uM” value rises from -19.4% to 11.9%.

First: N#Cc1ccc(C(=O)NC2CCCCCCC2)cc1
Second: O=C(CSc1nc2ccc(Cl)cc2[nH]1)NC1CCCC1
The “hERG current change (%, negative = inhibition) at 10uM” value of the first is lower: -30.8% for the first, 13.5% for the second.

Going from `COc1cc(/C=C2\C(=N)N3N=CSC3=NC2=O)ccc1OS(=O)(=O)c1ccccc1[N+](=O)[O-]` to `COc1ccc(S(=O)(=O)N(C)CC(=O)Nc2ccc3c(c2)OCCO3)cc1OC`, the “hERG current change (%, negative = inhibition) at 10uM” value rises from -2.22% to 11.1%.

First: CCOc1cc(/C=C2/C(=O)ON=C2C)ccc1O
Second: CCOc1cc(CNCc2cccs2)cc(Br)c1OCC.Cl
The “hERG current change (%, negative = inhibition) at 10uM” value of the first is higher: 9.1% for the first, -4.03% for the second.

Going from `C=CC1CN(CC(=O)OC)S(=O)(=O)c2ccccc21` (centres unmarked) to `COC(=O)C1CCCN1C(=O)COc1ccc(Br)cc1Cl` (centres unmarked), the “hERG current change (%, negative = inhibition) at 10uM” value rises from -1.58% to 9.21%.

Going from `CC(Sc1nc(N)cc(N)n1)C(=O)Nc1ccc(N2CCOCC2)cc1` (centres unmarked) to `Cl.O=S(=O)(NCCN1CCOCC1)c1cccc(C(F)(F)F)c1`, the “hERG current change (%, negative = inhibition) at 10uM” value falls from 17.8% to 5.32%.

First: C=CCOC(=O)C1=C(C)OC(N)=C(C#N)C1c1ccoc1 (centres unmarked)
Second: COc1ccc(-c2ccc(SCC(=O)NCc3ccc4c(c3)OCO4)nn2)cc1OC
The “hERG current change (%, negative = inhibition) at 10uM” value of the first is higher: 10.7% for the first, -1.22% for the second.

First: Cn1ccnc1SCC(=O)Nc1cccc2ccccc12
Second: O=C(NCc1ccc(F)cc1)c1cccs1
The “hERG current change (%, negative = inhibition) at 10uM” value of the first is lower: -4.5% for the first, 9.12% for the second.

Going from `Oc1c(Cl)cc(Cl)cc1/C=N/c1ncn[nH]1` to `COc1cc(OC)c(C(=O)NCC(c2cccs2)N(C)C)cc1OC` (centres unmarked), the “hERG current change (%, negative = inhibition) at 10uM” value rises from 12.4% to 13.7%.

First: Cc1cccc2cc(CN(Cc3nnnn3Cc3ccco3)C3CCCC3)c3nnnn3c12
Second: Cc1ccnc(NC(=O)CCC(=O)N(CC(=O)NC2CCCCC2)c2ccc3c(c2)OCO3)c1
The “hERG current change (%, negative = inhibition) at 10uM” value of the first is lower: 7.99% for the first, 11.5% for the second.

First: CCCC[n+]1c(C)sc2cc(OC)ccc21.[I-]
Second: COCCCn1c(SCc2cccc(C(F)(F)F)c2)nc2cc(OC)c(OC)cc2c1=N
The “hERG current change (%, negative = inhibition) at 10uM” value of the first is higher: 20% for the first, 9.07% for the second.

Source: publication PMC4336329 (PLoS ONE, 2015)
